Reference: the supplement of paper PMC8728848
The other results are listed elsewhere or left out.

Tests used:
Assay in all cases: glycan array binding signal (z-score within array); higher = stronger binding
Settings in all cases: glycan notation: IUPAC condensed, linker removed
[1] = target: Gal(b1-3)GlcNAc(b1-6)[Gal(b1-3)]GalNAc
Method in brief: (§1)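 Columns mapping to the same glycan were averaged after glycan names were converted to IUPAC-condensed notation. The data come from 3228 arrays in the Consortium for Functional Glycomics database, limited to those with an available protein sequence. Binding is reported as a within-array Z-score averaged across arrays of one protein sequence and across linkers.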

Gal(b1-3)GlcNAc6S = target: Gal(b1-3)GlcNAc6S
Method in brief: as §1

[2] = target: Gal(b1-3)[Fuc(a1-4)]GlcNAc
Method in brief: as §1

[3] = target: Gal(b1-3)[Fuc(a1-4)]GlcNAc(b1-2)Man
Method in brief: as §1

[4] = target: Gal(b1-3)[Fuc(a1-4)]GlcNAc(b1-2)Man(a1-3)[Gal(b1-3)[Fuc(a1-4)]GlcNAc(b1-2)Man(a1-6)]Man(b1-4)GlcNAc(b1-4)[Fuc(a1-6)]GlcNAc
Method in brief: as §1

[5] = target: Gal(b1-3)[Fuc(a1-4)]GlcNAc(b1-3)Gal(b1-3)[Fuc(a1-4)]GlcNAc
Method in brief: as §1

[6] = target: Gal(b1-3)[Fuc(a1-4)]GlcNAc(b1-3)Gal(b1-4)[Fuc(a1-3)]GlcNAc
Method in brief: as §1

[7] = target: Gal(b1-3)[Fuc(a1-4)]GlcNAc(b1-6)GalNAc
Method in brief: as §1

[8] = target: Gal(b1-3)[GlcNAc(b1-6)]GalNAc
Method in brief: as §1

[9] = target: Gal(b1-3)[Neu5Ac(a2-6)]GalNAc
Method in brief: as §1

[10] = target: Gal(b1-3)[Neu5Ac(a2-6)]GlcNAc(b1-4)Gal(b1-4)Glc
Method in brief: as §1

[11] = target: Gal(b1-3)[Neu5Ac(b2-6)]GalNAc
Method in brief: as §1

Gal(b1-4)Gal = target: Gal(b1-4)Gal
Method in brief: as §1

[12] = target: Gal(b1-4)GalNAc(a1-3)[Fuc(a1-2)]Gal(b1-4)GlcNAc
Method in brief: as §1

[13] = target: Gal(b1-4)GalNAc(b1-3)[Fuc(a1-2)]Gal(b1-4)GlcNAc
Method in brief: as §1

Gal(b1-4)Glc = target: Gal(b1-4)Glc
Method in brief: as §1

Gal(b1-4)Glc6S = target: Gal(b1-4)Glc6S
Method in brief: as §1

Gal(b1-4)GlcNAc = target: Gal(b1-4)GlcNAc
Method in brief: as §1

[14] = target: Gal(b1-4)GlcNAc(a1-6)Gal(b1-4)GlcNAc
Method in brief: as §1

Gal(b1-4)GlcNAc(b1-2)Man = target: Gal(b1-4)GlcNAc(b1-2)Man
Method in brief: as §1

[15] = target: Gal(b1-4)GlcNAc(b1-2)Man(a1-3)Man(b1-4)GlcNAc(b1-4)GlcNAc
Method in brief: as §1

[16] = target: Gal(b1-4)GlcNAc(b1-2)Man(a1-3)[Gal(b1-4)GlcNAc(b1-2)Man(a1-6)]Man(b1-4)GlcNAc(b1-4)GlcNAc
Method in brief: as §1

[17] = target: Gal(b1-4)GlcNAc(b1-2)Man(a1-3)[Gal(b1-4)GlcNAc(b1-2)Man(a1-6)]Man(b1-4)GlcNAc(b1-4)[Fuc(a1-6)]GlcNAc
Method in brief: as §1

[18] = target: Gal(b1-4)GlcNAc(b1-2)Man(a1-3)[Gal(b1-4)GlcNAc(b1-2)Man(a1-6)][Gal(b1-4)GlcNAc(b1-4)]Man(b1-4)GlcNAc(b1-4)[Fuc(a1-6)]GlcNAc
Method in brief: as §1

[19] = target: Gal(b1-4)GlcNAc(b1-2)Man(a1-3)[Gal(b1-4)GlcNAc(b1-2)Man(a1-6)][GlcNAc(b1-4)]Man(b1-4)GlcNAc(b1-4)[Fuc(a1-6)]GlcNAc
Method in brief: as §1

[20] = target: Gal(b1-4)GlcNAc(b1-2)Man(a1-3)[GlcNAc(b1-2)Man(a1-6)]Man(b1-4)GlcNAc(b1-4)GlcNAc
Method in brief: as §1

[21] = target: Gal(b1-4)GlcNAc(b1-2)Man(a1-3)[GlcNAc(b1-4)][Gal(b1-4)GlcNAc(b1-2)Man(a1-6)]Man(b1-4)GlcNAc(b1-4)GlcNAc
Method in brief: as §1

[22] = target: Gal(b1-4)GlcNAc(b1-2)Man(a1-3)[Man(a1-6)]Man(b1-4)GlcNAc(b1-4)GlcNAc
Method in brief: as §1

[23] = target: Gal(b1-4)GlcNAc(b1-2)Man(a1-6)Man(b1-4)GlcNAc(b1-4)GlcNAc
Method in brief: as §1

[24] = target: Gal(b1-4)GlcNAc(b1-2)Man(a1-6)[GlcNAc(b1-2)Man(a1-3)]Man(b1-4)GlcNAc(b1-4)GlcNAc
Method in brief: as §1

[25] = target: Gal(b1-4)GlcNAc(b1-2)Man(a1-6)[Man(a1-3)]Man(b1-4)GlcNAc(b1-4)GlcNAc
Method in brief: as §1

[26] = target: Gal(b1-4)GlcNAc(b1-2)[Gal(b1-4)GlcNAc(b1-4)]Man(a1-3)[Gal(b1-4)GlcNAc(b1-2)Man(a1-6)]Man(b1-4)GlcNAc(b1-4)GlcNAc
Method in brief: as §1

[27] = target: Gal(b1-4)GlcNAc(b1-2)[Gal(b1-4)GlcNAc(b1-4)]Man(a1-3)[Gal(b1-4)GlcNAc(b1-2)[Gal(b1-4)GlcNAc(b1-6)]Man(a1-6)]Man(b1-4)GlcNAc(b1-4)GlcNAc
Method in brief: as §1

[28] = target: Gal(b1-4)GlcNAc(b1-2)[Gal(b1-4)GlcNAc(b1-4)]Man(a1-3)[GlcNAc(b1-4)][Gal(b1-4)GlcNAc(b1-2)Man(a1-6)]Man(b1-4)GlcNAc(b1-4)GlcNAc
Method in brief: as §1

[29] = target: Gal(b1-4)GlcNAc(b1-2)[Gal(b1-4)GlcNAc(b1-4)]Man(a1-3)[GlcNAc(b1-4)][Gal(b1-4)GlcNAc(b1-2)[Gal(b1-4)GlcNAc(b1-6)]Man(a1-6)]Man(b1-4)GlcNAc(b1-4)GlcNAc
Method in brief: as §1

[30] = target: Gal(b1-4)GlcNAc(b1-2)[Gal(b1-4)GlcNAc(b1-6)]Man(a1-6)[Gal(b1-4)GlcNAc(b1-2)Man(a1-3)]Man(b1-4)GlcNAc(b1-4)GlcNAc
Method in brief: as §1

[31] = target: Gal(b1-4)GlcNAc(b1-2)[Gal(b1-4)GlcNAc(b1-6)]Man(a1-6)[Gal(b1-4)GlcNAc(b1-2)Man(a1-3)]Man(b1-4)GlcNAc(b1-4)[Fuc(a1-6)]GlcNAc
Method in brief: as §1

[32] = target: Gal(b1-4)GlcNAc(b1-2)[Gal(b1-4)GlcNAc(b1-6)]Man(a1-6)[GlcNAc(b1-4)][Gal(b1-4)GlcNAc(b1-2)Man(a1-3)]Man(b1-4)GlcNAc(b1-4)GlcNAc
Method in brief: as §1

[33] = target: Gal(b1-4)GlcNAc(b1-2)[Gal(b1-4)GlcNAc(b1-6)]Man(a1-6)[GlcNAc(b1-4)][Gal(b1-4)GlcNAc(b1-2)[Gal(b1-4)GlcNAc(b1-4)]Man(a1-3)]Man(b1-4)GlcNAc(b1-4)[Fuc(a1-6)]GlcNAc
Method in brief: as §1

[34] = target: Gal(b1-4)GlcNAc(b1-3)Gal(b1-3)GalNAc
Method in brief: as §1

[35] = target: Gal(b1-4)GlcNAc(b1-3)Gal(b1-3)GlcNAc
Method in brief: as §1

[36] = target: Gal(b1-4)GlcNAc(b1-3)Gal(b1-4)Glc
Method in brief: as §1

[37] = target: Gal(b1-4)GlcNAc(b1-3)Gal(b1-4)GlcNAc
Method in brief: as §1

[38] = target: Gal(b1-4)GlcNAc(b1-3)Gal(b1-4)GlcNAc(b1-2)Man(a1-3)[Gal(b1-4)GlcNAc(b1-3)Gal(b1-4)GlcNAc(b1-2)Man(a1-6)]Man(b1-4)GlcNAc(b1-4)GlcNAc
Method in brief: as §1

[39] = target: Gal(b1-4)GlcNAc(b1-3)Gal(b1-4)GlcNAc(b1-2)Man(a1-3)[Gal(b1-4)GlcNAc(b1-3)Gal(b1-4)GlcNAc(b1-2)Man(a1-6)]Man(b1-4)GlcNAc(b1-4)[Fuc(a1-6)]GlcNAc
Method in brief: as §1

B1: CBM40 CPF071 (Clostridium perfringens) (protein)
chain: MAHHHHHHVGTGSNDDDDKSPDPMLSSLGEYKDINLESSNASNITYDLEKYKNLDEGTIVVRFNSKDSKIQSLLGISNSKTKNGYFNFYVTNSRVGFELRNQKNEGNTQNGTENLVHMYKDVALNDGDNTVALKIEKNKGYKLFLNGKMIKEVKDTNTKFLNNIENLDSAFIGKTNRYGQSNEYNFKGNIGFMNIYNEPLGDDYLLSKTGETK
B1 was tested, and the “glycan array binding signal (z-score)” value [1] was 0.01, the “glycan array binding signal (z-score)” value (Gal(b1-3)GlcNAc6S) was -0.221 and the “glycan array binding signal (z-score)” value [2] was -0.098. The “glycan array binding signal (z-score)” value [3] was -0.329, the “glycan array binding signal (z-score)” value [4] was -0.395 and the “glycan array binding signal (z-score)” value [5] was -0.216. For the same binder, the “glycan array binding signal (z-score)” value [6] was -0.385, the “glycan array binding signal (z-score)” value [7] was -0.346 and the “glycan array binding signal (z-score)” value [8] was 0.093. The “glycan array binding signal (z-score)” value [9] was -0.306, the “glycan array binding signal (z-score)” value [10] was -0.087 and the “glycan array binding signal (z-score)” value [11] was -0.355. The “glycan array binding signal (z-score)” value (Gal(b1-4)Gal) was -0.26, the “glycan array binding signal (z-score)” value [12] was -0.293 and the “glycan array binding signal (z-score)” value [13] was -0.434. For the same binder, the “glycan array binding signal (z-score)” value (Gal(b1-4)Glc) was -0.251, the “glycan array binding signal (z-score)” value (Gal(b1-4)Glc6S) was -0.232 and the “glycan array binding signal (z-score)” value (Gal(b1-4)GlcNAc) was -0.105. For the same binder, the “glycan array binding signal (z-score)” value [14] was -0.095, the “glycan array binding signal (z-score)” value (Gal(b1-4)GlcNAc(b1-2)Man) was -0.555 and the “glycan array binding signal (z-score)” value [15] was -0.163. The “glycan array binding signal (z-score)” value [16] was -0.411, the “glycan array binding signal (z-score)” value [17] was 0.022 and the “glycan array binding signal (z-score)” value [18] was 0.079. The “glycan array binding signal (z-score)” value [19] was -0.197, the “glycan array binding signal (z-score)” value [20] was -0.427 and the “glycan array binding signal (z-score)” value [21] was -0.44. For the same binder, the “glycan array binding signal (z-score)” value [22] was -0.402, the “glycan array binding signal (z-score)” value [23] was -0.326 and the “glycan array binding signal (z-score)” value [24] was -0.515. The “glycan array binding signal (z-score)” value [25] was -0.615, the “glycan array binding signal (z-score)” value [26] was -0.479 and the “glycan array binding signal (z-score)” value [27] was -0.075. For the same binder, the “glycan array binding signal (z-score)” value [28] was -0.27, the “glycan array binding signal (z-score)” value [29] was -0.655 and the “glycan array binding signal (z-score)” value [30] was -0.455. The “glycan array binding signal (z-score)” value [31] was -0.351, the “glycan array binding signal (z-score)” value [32] was -0.173 and the “glycan array binding signal (z-score)” value [33] was -0.343. For the same binder, the “glycan array binding signal (z-score)” value [34] was 0.018, the “glycan array binding signal (z-score)” value [35] was -0.363 and the “glycan array binding signal (z-score)” value [36] was -0.338. The “glycan array binding signal (z-score)” value [37] was 0.186, the “glycan array binding signal (z-score)” value [38] was -0.391 and the “glycan array binding signal (z-score)” value [39] was -0.279.
